{"source": "patent US20250188160A1", "about": "(ASKGENE PHARMA, published 2025)", "binders": {"B1": {"name": "AMD-B (bispecific antibody, human IgG1, kappa)", "heavy": "AQQKYQPLDELDKTLYDQFMLQQGGGGGSGGGGSGGGGSEVQLVESGGGLVQPGGSLRLSCAASGYTFTNYGMNWVRQAPGKGLEWVGWINTYTGEPTYAADFKRRFTFSLDTSKSTAYLQMNSLRAEDTAVYYCAKYPHYYGSSHWYFDVWGQGTLVTVSS[letters of human IgG1 constant region omitted]", "light": "DIQMTQSPSSLSASVGDRVTITCSASQDISNYLNWYQQKPGKAPKVLIYFTSSLHSGVPSRFSGSGSGTDFTLTISSLQPEDFATYYCQQYSTVPWTFGQGTKVEIKRTVAAPSVFIFPPSDEQLKSGTASVVCLLNNFYPREAKVQWKVDNALQSGNSQESVTEQDSKDSTYSLSSTLTLSKADYEKHKVYACEVTHQGLSSPVTKSFNRGEC", "notes": "Peptide-antibody fusion"}, "B2": {"name": "AMD-D (bispecific antibody, human IgG1, kappa)", "heavy": "AQQKYQPLDELDKTLYDQFMLQQGLEGGGGSGGGGSGGGGSEVQLVESGGGLVQPGGSLRLSCAASGYTFTNYGMNWVRQAPGKGLEWVGWINTYTGEPTYAADFKRRFTFSLDTSKSTAYLQMNSLRAEDTAVYYCAKYPHYYGSSHWYFDVWGQGTLVTVSS[letters of human IgG1 constant region omitted]", "light": "DIQMTQSPSSLSASVGDRVTITCSASQDISNYLNWYQQKPGKAPKVLIYFTSSLHSGVPSRFSGSGSGTDFTLTISSLQPEDFATYYCQQYSTVPWTFGQGTKVEIKRTVAAPSVFIFPPSDEQLKSGTASVVCLLNNFYPREAKVQWKVDNALQSGNSQESVTEQDSKDSTYSLSSTLTLSKADYEKHKVYACEVTHQGLSSPVTKSFNRGEC", "notes": "Peptide-antibody fusion; Two copies of L1-15 (with LE)"}, "B3": {"name": "chimeric molecule 712-O (bispecific antibody, human IgG1, kappa)", "heavy": "AQQKYQPLDELDKTLYDQFMLQQGLEGGGGSGGGGSGGGGSEVQLVESGGGLVQPGGSLRLSCAASGYDFTHYGMNWVRQAPGKGLEWVGWINTYTGEPTYAADFKRRFTFSLDTSKSTAYLQMNSLRAEDTAVYYCAKYPYYYGTSHWYFDVWGQGTLVTVSSASTKGPSVFPLAPSSKSTSGGTAALGCLVKDYFPEPVTVSWNSGALTSGVHTFPAVLQSSGLYSLSSVVTVPSSSLGTQTYICNVNHKPSNTKVDKKV[letters of human IgG1 Fc with changes omitted]", "light": "DIQLTQSPSSLSASVGDRVTITCSASQDISNYLNWYQQKPGKAPKVLIYFTSSLHSGVPSRFSGSGSGTDFTLTISSLQPEDFATYYCQQYSTVPWTFGQGTKVEIKRTVAAPSVFIFPPSDEQLKSGTASVVCLLNNFYPREAKVQWKVDNALQSGNSQESVTEQDSKDSTYSLSSTLTLSKADYEKHKVYACEVTHQGLSSPVTKSFNRGEC", "notes": "Peptide-antibody fusion; also called ASKB712-O"}, "B4": {"name": "chimeric molecule 712-O2 (bispecific antibody, human IgG1, kappa)", "heavy": "EVQLVESGGGLVQPGGSLRLSCAASGYDFTHYGMNWVRQAPGKGLEWVGWINTYTGEPTYAADFKRRFTFSLDTSKSTAYLQMNSLRAEDTAVYYCAKYPYYYGTSHWYFDVWGQGTLVTVSSASTKGPSVFPLAPSSKSTSGGTAALGCLVKDYFPEPVTVSWNSGALTSGVHTFPAVLQSSGLYSLSSVVTVPSSSLGTQTYICNVNHKPSNTKVDKKV[letters of human IgG1 Fc with changes omitted]AGGGGSGGGGSGGGGSAQQKYQPLDELDKTLYDQFMLQQGLE", "light": "DIQLTQSPSSLSASVGDRVTITCSASQDISNYLNWYQQKPGKAPKVLIYFTSSLHSGVPSRFSGSGSGTDFTLTISSLQPEDFATYYCQQYSTVPWTFGQGTKVEIKRTVAAPSVFIFPPSDEQLKSGTASVVCLLNNFYPREAKVQWKVDNALQSGNSQESVTEQDSKDSTYSLSSTLTLSKADYEKHKVYACEVTHQGLSSPVTKSFNRGEC", "notes": "Peptide-antibody fusion; also called ASKB712-O2"}, "B5": {"name": "AMD-E (bispecific antibody)", "heavy": "EVQLVESGGGLVQPGGSLRLSCAASGYTFTNYGMNWVRQAPGKGLEWVGWINTYTGEPTYAADFKRRFTFSLDTSKSTAYLQMNSLRAEDTAVYYCAKYPHYYGSSHWYFDVWGQGTLVTVSS[letters of human IgG1 constant region omitted]GGGGGAQQEECEWDPWTCEHMGGGGSGGGGSGGGGSATHQEECEWDPWTCEHMLE", "light": "DIQMTQSPSSLSASVGDRVTITCSASQDISNYLNWYQQKPGKAPKVLIYFTSSLHSGVPSRFSGSGSGTDFTLTISSLQPEDFATYYCQQYSTVPWTFGQGTKVEIKRTVAAPSVFIFPPSDEQLKSGTASVVCLLNNFYPREAKVQWKVDNALQSGNSQESVTEQDSKDSTYSLSSTLTLSKADYEKHKVYACEVTHQGLSSPVTKSFNRGEC"}}, "key": {"[1]": {"target": "T1, Human Ang1 protein (R&D System) (human, UniProt Q15389 20-498, limits assumed)", "T1 construct": "Bought protein", "T1 sequence (looked up)": "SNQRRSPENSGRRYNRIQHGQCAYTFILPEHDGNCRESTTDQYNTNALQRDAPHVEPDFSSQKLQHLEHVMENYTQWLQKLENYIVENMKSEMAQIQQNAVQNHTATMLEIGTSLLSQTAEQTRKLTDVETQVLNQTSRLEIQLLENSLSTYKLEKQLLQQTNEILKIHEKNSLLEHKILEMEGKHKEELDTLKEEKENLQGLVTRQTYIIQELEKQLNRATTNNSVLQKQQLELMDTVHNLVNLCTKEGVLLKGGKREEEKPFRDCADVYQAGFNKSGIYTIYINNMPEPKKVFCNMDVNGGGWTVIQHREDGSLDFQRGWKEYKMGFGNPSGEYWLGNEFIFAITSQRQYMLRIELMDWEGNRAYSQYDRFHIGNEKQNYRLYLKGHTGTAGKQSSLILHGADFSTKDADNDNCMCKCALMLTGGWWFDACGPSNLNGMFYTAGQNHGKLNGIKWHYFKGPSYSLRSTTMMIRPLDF", "assay": "Octet Red96 (BLI); chimeric molecule on anti-human IgG Fc sensors, ANG1 in solution; 1:1 model, global fit"}, "[2]": {"target": "T2, Human Ang2 protein (R&D System) (human, UniProt O15123 19-496, limits assumed)", "T2 construct": "Bought protein; also called angiopoietin-2", "T2 sequence (looked up)": "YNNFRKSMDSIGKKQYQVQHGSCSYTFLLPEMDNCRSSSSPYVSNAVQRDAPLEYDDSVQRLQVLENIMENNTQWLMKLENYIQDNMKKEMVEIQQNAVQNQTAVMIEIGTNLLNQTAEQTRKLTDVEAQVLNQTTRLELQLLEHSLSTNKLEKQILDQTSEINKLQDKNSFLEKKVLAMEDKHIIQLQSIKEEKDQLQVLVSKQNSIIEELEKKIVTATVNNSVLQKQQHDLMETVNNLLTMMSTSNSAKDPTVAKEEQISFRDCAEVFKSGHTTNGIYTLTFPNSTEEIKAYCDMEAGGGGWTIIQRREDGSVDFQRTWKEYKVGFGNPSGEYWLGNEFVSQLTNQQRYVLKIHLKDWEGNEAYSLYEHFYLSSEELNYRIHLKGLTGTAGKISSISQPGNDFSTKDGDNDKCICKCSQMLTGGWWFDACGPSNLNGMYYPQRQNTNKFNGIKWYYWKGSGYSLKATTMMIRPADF", "assay": "Ang-2 blocking assay (inhibition of the binding of Ang-2 to Tie-2), FIG. 5"}}}
{"binder": "B1", "values": [{"measurement": "Kd", "setting": "[1]", "result": 1.73, "unit": "nM"}]}
{"binder": "B2", "values": [{"measurement": "Kd", "setting": "[1]", "result": 1.37, "unit": "nM"}]}
{"binder": "B3", "values": [{"measurement": "IC50", "setting": "[2]", "result": "~0.033", "unit": "nM"}]}
{"binder": "B4", "values": [{"measurement": "IC50", "setting": "[2]", "result": "~0.078", "unit": "nM"}]}
{"binder": "B5", "values": [{"measurement": "Kd", "setting": "[1]", "result": 1.07, "unit": "nM"}]}
